# Several values for one entry are separate records, joined by “and”; a condition that tells them apart may be missing. Identical values can stand only once.
# T1: rat OX40 (rat, UniProt P15725 20-271)
# T1 construct: whole, on cells; also called rat CD134
# T1 sequence (looked up): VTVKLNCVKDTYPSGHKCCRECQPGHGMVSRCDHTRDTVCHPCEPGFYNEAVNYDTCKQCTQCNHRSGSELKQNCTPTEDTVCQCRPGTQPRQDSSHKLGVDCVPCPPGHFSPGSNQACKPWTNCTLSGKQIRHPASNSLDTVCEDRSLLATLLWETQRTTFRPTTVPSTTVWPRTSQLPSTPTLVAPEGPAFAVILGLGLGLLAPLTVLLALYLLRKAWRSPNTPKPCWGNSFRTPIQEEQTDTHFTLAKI
# T2: human OX40 (human, UniProt P43489 29-277)
# T2 construct: whole, on cells; also called CD134; TNFRSF4
# T2 sequence (looked up): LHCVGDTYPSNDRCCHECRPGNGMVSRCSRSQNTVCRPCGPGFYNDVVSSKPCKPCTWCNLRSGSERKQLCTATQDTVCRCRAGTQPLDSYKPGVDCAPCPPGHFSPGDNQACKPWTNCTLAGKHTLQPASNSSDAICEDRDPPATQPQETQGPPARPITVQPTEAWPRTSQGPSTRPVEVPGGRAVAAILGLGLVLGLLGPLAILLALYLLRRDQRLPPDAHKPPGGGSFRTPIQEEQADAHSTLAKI
# T3: TNFRSF16 (NGFR) (human, UniProt P08138 29-427)
# T3 construct: whole, on cells; also called human NGFR; NGF receptor
# T3 sequence (looked up): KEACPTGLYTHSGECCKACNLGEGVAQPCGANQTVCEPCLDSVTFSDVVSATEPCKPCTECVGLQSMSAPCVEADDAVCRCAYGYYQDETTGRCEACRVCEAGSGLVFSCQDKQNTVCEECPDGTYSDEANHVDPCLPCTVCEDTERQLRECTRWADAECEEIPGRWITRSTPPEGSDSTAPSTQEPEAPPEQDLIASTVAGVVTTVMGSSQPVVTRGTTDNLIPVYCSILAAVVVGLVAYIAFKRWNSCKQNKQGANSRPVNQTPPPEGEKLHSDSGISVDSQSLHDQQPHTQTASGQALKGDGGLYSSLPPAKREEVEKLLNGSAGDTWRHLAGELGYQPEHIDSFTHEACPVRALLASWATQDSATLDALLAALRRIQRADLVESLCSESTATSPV
# T4: TNFRSF18 (GITR) (human, UniProt Q9Y5U5 26-241)
# T4 construct: whole, on cells; also called human GITR; AITR
# T4 sequence (looked up): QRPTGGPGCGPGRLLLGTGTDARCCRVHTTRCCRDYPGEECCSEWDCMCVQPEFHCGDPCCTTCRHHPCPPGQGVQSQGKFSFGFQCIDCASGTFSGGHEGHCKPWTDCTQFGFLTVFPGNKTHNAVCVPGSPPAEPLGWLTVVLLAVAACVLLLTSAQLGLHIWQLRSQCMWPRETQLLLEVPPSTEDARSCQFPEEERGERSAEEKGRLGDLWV
# T5: TNFRSF14 (HVEM) (human, UniProt Q92956 39-283)
# T5 construct: whole, on cells; also called human HVEM; TR2
# T5 sequence (looked up): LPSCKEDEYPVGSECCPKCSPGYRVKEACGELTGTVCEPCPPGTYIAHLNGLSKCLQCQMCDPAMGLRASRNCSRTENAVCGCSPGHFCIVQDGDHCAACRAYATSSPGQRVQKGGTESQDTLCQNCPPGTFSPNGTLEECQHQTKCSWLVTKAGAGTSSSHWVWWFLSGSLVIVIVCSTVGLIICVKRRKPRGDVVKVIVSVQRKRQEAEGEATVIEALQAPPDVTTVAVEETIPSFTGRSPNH
# B1: OX40L IgG4P Fusion Protein (Fc fusion)
# chain: [sequence of human IgG4 Fc with S228P (EU numbers) not given]DQDKIEALSSKVQQLERSIGLKDLAMADLEQKVLEMEASTQVSHRYPRIQSIKVQFTEYKKEKGFILTSQKEDEIMKVQNNSVIINCDGFYLISLKGYFSQEVNISLHYQKDEEPLFQLKKVRSVNSLMVASLTYKDKVYLNVTTDNTSLDDFHVNGGELILIHQNPGEFCVL
# notes: Hexamer of six identical subunits; expressed in HEK293, purified by Protein A and gel filtration; also called huIgG4PFcTF2OX40L; huIgG4FcPTF2OX40L
# B2: F180A OX40L fusion protein human IgG4P (Fc fusion)
# chain: [sequence of human IgG4 Fc with S228P (EU numbers) not given]DQDKIEALSSKVQQLERSIGLKDLAMADLEQKVLEMEASTQVSHRYPRIQSIKVQFTEYKKEKGFILTSQKEDEIMKVQNNSVIINCDGFYLISLKGYFSQEVNISLHYQKDEEPLFQLKKVRSVNSLMVASLTYKDKVYLNVTTDNTSLDDFHVNGGELILIHQNPGEACVL
# notes: Control variant of m1; also called huIgG4PFcTF2OX40L F180A; huIgGFcPTF2OX40L F180A
# What was measured:
# cynomolgus monkey OX40 [1] = target: T6, cynomolgus monkey OX40 (cynomolgus monkey); experiment: flow cytometry on activated primary cynomolgus monkey CD4+ T cells, lower panel
# T6 construct: also called cyno OX40
# rat OX40 = target: T1, rat OX40; experiment: flow cytometry on activated primary rat CD4+ T cells, AlexaFluor 488 goat anti-human secondary antibody
# rhesus monkey OX40 [2] = target: T7, rhesus monkey OX40 (rhesus monkey); experiment: flow cytometry, equilibrium binding to activated primary rhesus CD4+ T cells, mean ± SD of 2 experiments
# T7 construct: also called rhesus macaque OX40
# cynomolgus monkey OX40 [3] = target: T6, cynomolgus monkey OX40; experiment: flow cytometry on activated primary cynomolgus monkey CD4+ T cells, upper panel
# human OX40 [4] = target: T2, human OX40; experiment: flow cytometry on activated primary human CD4+ T cells, Experiment #1
# TNFRSF16 (NGFR) = target: T3, TNFRSF16 (NGFR); experiment: flow cytometry histogram on HEK293 cells transiently expressing NGFR, AlexaFluor 647 goat anti-human secondary antibody
# cynomolgus monkey OX40 [5] = target: T6, cynomolgus monkey OX40; experiment: flow cytometry, equilibrium binding to activated primary cyno CD4+ T cells, mean ± SD of 2 experiments
# rhesus monkey OX40 [6] = target: T7, rhesus monkey OX40; experiment: flow cytometry on activated primary rhesus macaque CD4+ T cells, upper panel
# [7] = target: T8, human complement protein C1q (human, UniProt P02745; P02746; P02747); experiment: surface plasmon resonance (ProteOn XPR36), C1q injected over immobilised OX40L IgG4P Fusion Protein
# T8 construct: mature; Printed as Clq in the text; also called Clq; complement component C1q
# T8 sequence (P02745 23-245, chain 1 of 3): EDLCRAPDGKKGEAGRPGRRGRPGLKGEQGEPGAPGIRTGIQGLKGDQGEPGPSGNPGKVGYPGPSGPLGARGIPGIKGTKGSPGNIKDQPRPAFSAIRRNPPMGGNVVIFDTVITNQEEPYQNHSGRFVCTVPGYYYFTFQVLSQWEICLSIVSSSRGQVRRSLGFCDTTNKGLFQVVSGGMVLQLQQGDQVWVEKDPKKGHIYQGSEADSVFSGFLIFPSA
# T8 sequence (P02746 28-253, chain 2 of 3, further chain): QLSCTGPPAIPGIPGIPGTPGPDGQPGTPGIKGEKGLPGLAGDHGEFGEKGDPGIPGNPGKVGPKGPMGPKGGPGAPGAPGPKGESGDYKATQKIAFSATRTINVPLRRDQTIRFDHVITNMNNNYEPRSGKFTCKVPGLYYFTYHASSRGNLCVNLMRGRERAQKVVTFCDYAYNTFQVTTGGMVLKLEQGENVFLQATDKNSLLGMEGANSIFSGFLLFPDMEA
# T8 sequence (P02747 29-245, chain 3 of 3, further chain): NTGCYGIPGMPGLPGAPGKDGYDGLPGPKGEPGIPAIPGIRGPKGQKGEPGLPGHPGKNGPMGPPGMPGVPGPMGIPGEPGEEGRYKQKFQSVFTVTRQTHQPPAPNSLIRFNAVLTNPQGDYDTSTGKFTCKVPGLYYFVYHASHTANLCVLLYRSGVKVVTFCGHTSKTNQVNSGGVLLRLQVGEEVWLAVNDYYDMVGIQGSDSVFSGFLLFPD
# TNFRSF18 (GITR) = target: T4, TNFRSF18 (GITR); experiment: flow cytometry histogram on HEK293 cells transiently expressing GITR, AlexaFluor 647 goat anti-human secondary antibody
# TNFRSF14 (HVEM) = target: T5, TNFRSF14 (HVEM); experiment: flow cytometry histogram on HEK293 cells transiently expressing HVEM, AlexaFluor 647 goat anti-human secondary antibody
# TNFRSF3 (LTβR) = target: T9, TNFRSF3 (LTβR) (human, UniProt P36941 31-435); experiment: flow cytometry histogram on HEK293 cells transiently expressing LTβR, AlexaFluor 647 goat anti-human secondary antibody
# Sequence of TNFRSF3 (LTβR) (P36941 31-435): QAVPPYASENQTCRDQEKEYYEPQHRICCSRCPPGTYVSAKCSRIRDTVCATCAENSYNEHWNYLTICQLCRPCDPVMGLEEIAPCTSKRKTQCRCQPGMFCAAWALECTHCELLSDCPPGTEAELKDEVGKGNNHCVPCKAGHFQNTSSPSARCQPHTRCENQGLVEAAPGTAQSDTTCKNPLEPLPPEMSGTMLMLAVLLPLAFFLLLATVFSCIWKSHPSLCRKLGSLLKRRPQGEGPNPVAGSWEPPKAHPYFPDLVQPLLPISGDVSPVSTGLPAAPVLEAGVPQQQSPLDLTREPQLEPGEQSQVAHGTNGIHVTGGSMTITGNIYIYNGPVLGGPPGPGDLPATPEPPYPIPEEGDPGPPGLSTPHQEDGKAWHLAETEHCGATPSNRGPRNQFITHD
# T9 construct: whole, on cells; also called human LTβR; TNFRIII
# human OX40 [8] = target: T2, human OX40; experiment: flow cytometry, equilibrium binding to human OX40-expressing Jurkat NFkB-luciferase clone 64 cells, mean ± SD of 3 experiments
# human OX40 [9] = target: T2, human OX40; experiment: cell-based or functional assay
# TNFRSF9 (CD137) = target: T10, TNFRSF9 (CD137) (human, UniProt Q07011 24-255); experiment: flow cytometry histogram on HEK293 cells transiently expressing CD137, AlexaFluor 647 goat anti-human secondary antibody
# Sequence of TNFRSF9 (CD137) (Q07011 24-255): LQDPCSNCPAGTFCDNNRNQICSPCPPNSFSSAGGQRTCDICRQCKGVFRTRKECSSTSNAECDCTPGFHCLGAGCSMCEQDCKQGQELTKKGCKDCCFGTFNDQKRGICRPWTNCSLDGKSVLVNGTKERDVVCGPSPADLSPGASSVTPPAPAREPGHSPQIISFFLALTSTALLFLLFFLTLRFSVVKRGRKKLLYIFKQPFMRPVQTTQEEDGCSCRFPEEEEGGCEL
# T10 construct: whole, on cells; also called human CD137; 4-1BB
# human OX40 [10] = target: T2, human OX40; experiment: flow cytometry on activated primary human CD4+ T cells, Experiment #2
# human OX40 [11] = target: T2, human OX40; experiment: flow cytometry, equilibrium binding to activated primary human CD4+ T cells, mean ± SD of 6 donors
# human OX40 [12] = target: T2, human OX40; experiment: cell-based or functional assay; remark: listed apart in the source
# human OX40 [13] = target: T2, human OX40; experiment: flow cytometry on activated primary human CD4+ T cells
binder,measurement,setting,value
B1,EC50 (read off the curve),cynomolgus monkey OX40 [1],~0.003 nM
same,binding result,rat OX40,no binding (tested: about 30 nM)
same,Kd,rhesus monkey OX40 [2],0.0207 nM
same,EC50 (read off the curve),cynomolgus monkey OX40 [3],~0.03 nM
same,EC50 (read off the curve),human OX40 [4],~0.01 nM and ~0.004 nM
same,binding result,TNFRSF16 (NGFR),no binding (tested: 1 µg/mL (single concentration))
same,Kd,cynomolgus monkey OX40 [5],0.0242 nM
same,EC50 (read off the curve),rhesus monkey OX40 [6],~0.04 nM
same,binding result,[7],no binding (tested: 26 nM C1q)
same,binding result,TNFRSF18 (GITR),no binding (tested: 1 µg/mL (single concentration))
same,binding result,TNFRSF14 (HVEM),no binding (tested: 1 µg/mL (single concentration))
same,binding result,TNFRSF3 (LTβR),no binding (tested: 1 µg/mL (single concentration))
same,EC50,human OX40 [8],0.016 nM
same,Kd,human OX40 [8],0.012 nM
same,"CD4+ T cell proliferation EC50, donor 1, plate-based bioassay",human OX40 [9],0.009 nM
same,"CD4+ T cell proliferation EC50, donor 2, plate-based bioassay",human OX40 [9],0.025 nM
same,"CD4+ T cell proliferation EC50, donor 3, plate-based bioassay",human OX40 [9],0.0005 nM
same,"CD4+ T cell proliferation EC50, donor 4, plate-based bioassay",human OX40 [9],0.022 nM
same,"IFNγ release EC50, donor 1, plate-based bioassay",human OX40 [9],0.012 nM
same,"IFNγ release EC50, donor 2, plate-based bioassay",human OX40 [9],0.081 nM
same,"IFNγ release EC50, donor 3, plate-based bioassay",human OX40 [9],0.058 nM
same,"IFNγ release EC50, donor 4, plate-based bioassay",human OX40 [9],0.11 nM
same,"IL-5 release EC50, donor 1, plate-based bioassay",human OX40 [9],0.03 nM
same,"IL-5 release EC50, donor 2, plate-based bioassay",human OX40 [9],0.087 nM
same,"IL-10 release EC50, donor 1, plate-based bioassay",human OX40 [9],0.022 nM
same,"IL-10 release EC50, donor 2, plate-based bioassay",human OX40 [9],0.049 nM
same,"IL-10 release EC50, donor 3, plate-based bioassay",human OX40 [9],~0.04 nM
same,"IL-10 release EC50, donor 4, plate-based bioassay",human OX40 [9],0.089 nM
same,"TNFα release EC50, donor 1, plate-based bioassay",human OX40 [9],0.018 nM
same,"TNFα release EC50, donor 2, plate-based bioassay",human OX40 [9],0.065 nM
same,"TNFα release EC50, donor 3, plate-based bioassay",human OX40 [9],~0.038 nM
same,"TNFα release EC50, donor 4, plate-based bioassay",human OX40 [9],0.06 nM
same,binding result,TNFRSF9 (CD137),no binding (tested: 1 µg/mL (single concentration))
same,EC50 (read off the curve),human OX40 [10],~0.005 nM and ~0.006 nM
same,EC50,human OX40 [11],0.0066 nM
same,Kd,human OX40 [11],0.0036 nM
same,"2-cell NFkB-luciferase reporter EC50, experiment 1, Raji",human OX40 [12],0.012 nM
same,"2-cell NFkB-luciferase reporter EC50, experiment 2, CD32B-expressing HEK",human OX40 [12],0.012 nM
same,"2-cell NFkB-luciferase reporter EC50, experiment 3, CD32B-expressing HEK",human OX40 [12],0.0056 nM
same,"2-cell NFkB-luciferase reporter EC50, experiment 3, Raji",human OX40 [12],0.015 nM
same,"2-cell NFkB-luciferase reporter EC50, experiment 4, Raji",human OX40 [12],0.015 nM
same,"2-cell NFkB-luciferase reporter EC50, experiment 5, CD32B-expressing HEK",human OX40 [12],0.112 nM
same,"2-cell NFkB-luciferase reporter EC50, experiment 6, CD32B-expressing HEK",human OX40 [12],0.104 nM
same,"2-cell NFkB-luciferase reporter EC50, experiment 7, CD32B-expressing HEK",human OX40 [12],0.102 nM
same,"2-cell NFkB-luciferase reporter EC50, experiment 8, CD32B-expressing HEK",human OX40 [12],0.117 nM
same,"2-cell NFkB-luciferase reporter EC50, experiment 9, CD32B-expressing HEK",human OX40 [12],0.134 nM
same,"2-cell NFkB-luciferase reporter EC50, experiment 10, CD32A-expressing HEK",human OX40 [12],0.035 nM
same,"2-cell NFkB-luciferase reporter EC50, experiment 11, CD32A-expressing HEK",human OX40 [12],0.025 nM
same,"2-cell NFkB-luciferase reporter EC50, experiment 12, CD32A-expressing HEK",human OX40 [12],0.033 nM
same,"2-cell NFkB-luciferase reporter EC50, experiment 13, CD45+ cells, renal tumor",human OX40 [12],0.042 nM
same,"2-cell NFkB-luciferase reporter EC50, experiment 14, CD45+ cells, renal tumor",human OX40 [12],0.131 nM
same,"2-cell NFkB-luciferase reporter EC50, experiment 15, CD45+ cells, lung tumor",human OX40 [12],0.037 nM
same,"2-cell NFkB-luciferase reporter EC50, experiment 16, CD45+ cells, renal tumor",human OX40 [12],0.066 nM
B2,binding result,rat OX40,no binding (tested: about 30 nM)
same,binding result,human OX40 [13],no binding (tested: about 3e-9 M)

# From patent US20160024176A1 (AstraZeneca / MedImmune, published 2016)
